{
  "source": "PubChem BioAssay AID485294",
  "about": "(National Center for Advancing Translational Sciences (NCATS), 2010)",
  "note": "Screen size: about 370,000 compounds; about 150 (0.041%) were called active. Inconclusive means that the source gave no clear call. Such entries were picked first, then a sample of the others. Calls come from the whole dose curve; as a rule, active = well fitted inhibition curve with a large enough effect; inconclusive = small, poorly fitted or top-dose-only effect; inactive = flat fitted curve, though single readings scatter. Potencies of inconclusive entries are left out as doubtful fits. Potency is the fitted concentration of half-maximal effect; tags give direction and shape of the fitted curve.",
  "data": [
    {"target": "Beta-lactamase (Escherichia coli (strain K12)) (UniProt P00811)", "sequence (P00811 whole entry, looked up)": "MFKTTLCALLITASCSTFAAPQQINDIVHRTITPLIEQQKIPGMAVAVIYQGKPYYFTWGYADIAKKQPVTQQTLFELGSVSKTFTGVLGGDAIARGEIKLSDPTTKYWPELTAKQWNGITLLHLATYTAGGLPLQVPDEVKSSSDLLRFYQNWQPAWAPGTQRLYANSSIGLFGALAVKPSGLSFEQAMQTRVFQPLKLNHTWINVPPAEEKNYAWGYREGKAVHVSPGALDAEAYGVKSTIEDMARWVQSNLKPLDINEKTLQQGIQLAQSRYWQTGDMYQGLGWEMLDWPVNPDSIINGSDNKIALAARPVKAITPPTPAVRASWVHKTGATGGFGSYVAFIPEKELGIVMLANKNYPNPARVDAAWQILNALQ", "assay": "qHTS Inhibitors of AmpC Beta-Lactamase (assay with detergent); note: nearly all actives have a fitted effect of over 25% in size;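 for activity change, negative = inhibition: 0% = no-compound wells and -100% = no-enzyme wells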", "conditions": "AmpC hydrolysis of nitrocefin, absorbance 480 nm, 0.01% Triton; activity change, negative = inhibition: at 114 µM (top of the series)", "outline": "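AmpC (5.3 nM in the dispensed reagent) in 20 mM phosphate pH 7.0 with 0.01% (detergent screen) or 0.0001% Triton X-100 was preincubated with compounds for 15 min at room temperature. Nitrocefin was then added from an 800 uM solution, and hydrolysis was followed at 480 nm.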", "values": [
      {"compound": "COc1ccc(NC(=O)CCc2ccccc2)cc1S(=O)(=O)N1CCCCC1", "activity change, negative = inhibition": "inactive: -7.35%"},
      {"compound": "O=C(CSc1c2c(nc3cc(Cl)ccc13)CCCC2)NCCN1CCOCC1", "Potency": "inconclusive [inhibitor, single point]"},
      {"compound": "COc1ccc(C(=O)NCCS(=O)(=O)N(C)Cc2ccccc2)cc1", "Potency": "inconclusive [inhibitor, full curve, poor fit]"},
      {"compound": "COc1ccc(Br)cc1CNC(=O)CCSCc1ccc(C)cc1", "activity change, negative = inhibition": "inactive: 1.6%"},
      {"compound": "O=C(Nc1ccnn1C1CCN(C2CCOCC2)CC1)c1cccc(F)c1", "activity change, negative = inhibition": "inactive: -3.37%"},
      {"compound": "Cc1ccc(S(=O)(=O)CCSC(=N)N)cc1", "activity change, negative = inhibition": "inactive: -1.21%"},
      {"compound": "COc1ccc(CNC(=O)C2CSCCS2)cc1", "note": "(stereo not drawn)", "activity change, negative = inhibition": "inactive: -1.08%"},
      {"compound": "Cc1ccccc1NC(=O)CSc1nc(O)cc(=O)n1C", "activity change, negative = inhibition": "inactive: -1.49%"},
      {"compound": "CCOC(=O)N1CCN(c2c(NCCN3CCN(Cc4ccccc4)CC3)c(=O)c2=O)CC1", "Potency": "inconclusive [inhibitor, full curve, poor fit]"},
      {"compound": "O=C(CSc1ncn[nH]1)N1N=C2/C(=C/c3ccco3)CCCC2C1c1ccco1", "note": "(stereo not drawn)", "activity change, negative = inhibition": "inactive: -4.12%"},
      {"compound": "CC1CCN(c2cc(N3CCN(C(=O)c4ccc(F)c(F)c4)CC3)c([N+](=O)[O-])cc2F)CC1", "Potency": "inconclusive [inhibitor, full curve]"},
      {"compound": "COC(=O)c1ccc(CSc2ccccc2C)o1", "Potency": "inconclusive [inhibitor, partial curve, poor fit]"},
      {"compound": "FC(F)(F)c1nnc2ccc(N3CCCCCC3)nn12", "Potency": "inconclusive [inhibitor, full curve]"},
      {"compound": "CC(C)Cc1nnc(NC(=O)C2CCN(C(=O)c3ccc(F)cc3)CC2)s1", "Potency": "inconclusive [inhibitor, full curve]"},
      {"compound": "COc1nccc(-c2ccc(F)cc2)c1C#N", "Potency": "inconclusive [inhibitor, full curve, poor fit]"},
      {"compound": "COc1cccc(-c2nc(N3CCCCC3C)c3ccccc3n2)c1O", "note": "(stereo not drawn)", "Potency": "inconclusive [inhibitor, full curve, poor fit]"},
      {"compound": "COCCCNC(=O)CNC(=S)N(Cc1cc(OC)c(OC)c(OC)c1)C1CCCC1", "Potency": "inconclusive [inhibitor, full curve, poor fit]"},
      {"compound": "CC(C)C[C@@H](CN(C)N=O)N(C[C@H](Cc1ccccc1)N(CCc1ccccc1)N=O)N=O", "activity change, negative = inhibition": "inactive: -4.68%"},
      {"compound": "NC(=O)NCc1ccc(C(=O)OCc2ccncc2)cc1", "Potency": "inconclusive [inhibitor, partial curve, poor fit]"},
      {"compound": "Cc1nc(SC(C)C(=O)Nc2ccccc2Cl)cc(-c2ccccc2)n1", "note": "(stereo not drawn)", "Potency": "inconclusive [inhibitor, full curve, poor fit]"},
      {"compound": "c1ccc(-c2ccc(-c3n(-c4ccccn4)c4ccccc4[n+]3-c3ccccn3)cc2)cc1", "Potency": "inconclusive [inhibitor, partial curve, poor fit]"},
      {"compound": "COc1ccc(-c2cc(C(=O)NC(C(=O)O)C(C)C)c(C)o2)cc1OC", "note": "(stereo not drawn)", "Potency": "inconclusive [inhibitor, partial curve, poor fit]"},
      {"compound": "COC(=O)c1ccccc1NC(=S)NC(=O)c1ccccc1C", "Potency": "active: 39.8 µM"},
      {"compound": "CSC1=N/C(=C\\c2c(F)cccc2Cl)C(=O)S1", "Potency": "inconclusive [inhibitor, full curve, poor fit]"},
      {"compound": "CC(c1ccccc1)N1C(=O)CC(Sc2ncccc2C(=O)O)C1=O", "note": "(stereo not drawn)", "Potency": "inconclusive [inhibitor, full curve]"},
      {"compound": "O=C(c1ccc2c(=O)n(C3CCCC3)c(=S)[nH]c2c1)N1CCc2ccccc21", "Potency": "inconclusive [inhibitor, single point]"},
      {"compound": "COc1ccc(-n2cnc3cc(NC(=O)c4ccco4)ccc32)cc1", "activity change, negative = inhibition": "inactive: 2.93%"},
      {"compound": "Cc1cc(NS(=O)(=O)c2ccccc2)c(C)c(Cl)c1O", "Potency": "inconclusive [inhibitor, full curve, poor fit]"},
      {"compound": "COc1cc(C2NCCC(=O)C2(C)C)cc(OC)c1OC", "note": "(stereo not drawn)", "Potency": "inconclusive [inhibitor, single point]"},
      {"compound": "COc1ccc(/C=C(\\C#N)C(=O)Nc2cccnc2)cc1", "Potency": "inconclusive [inhibitor, single point]"},
      {"compound": "CCOC(=O)C1CCCN(c2nc3ccccc3nc2C(C#N)C(=O)OCCOC)C1", "note": "(stereo not drawn)", "activity change, negative = inhibition": "inactive: -2.15%"},
      {"compound": "CCc1cccc(C)c1NC(=O)CCn1c(=O)c2cccn2c2ccccc21", "activity change, negative = inhibition": "inactive: 0.421%"},
      {"compound": "Cc1ccc(-c2nnn(CC(=O)N(CC(=O)NCC3CCCO3)c3ccccc3)n2)o1", "note": "(stereo not drawn)", "Potency": "inconclusive [inhibitor, partial curve]"},
      {"compound": "C=CCn1c(C)c(C(C)=O)c(SC)nc1=S", "Potency": "inconclusive [inhibitor, partial curve, poor fit]"},
      {"compound": "CCOC(=O)c1ccc(N2C(=O)CC(N3CCC(C(=O)OCC)CC3)C2=O)cc1", "note": "(stereo not drawn)", "Potency": "inconclusive [inhibitor, full curve, poor fit]"},
      {"compound": "O=C(O)C(O)C(O)C(O)C(O)C(=O)O", "note": "(stereo not drawn) (tested in a mixture with another compound)", "Potency": "inconclusive [inhibitor, full curve, poor fit]"},
      {"compound": "COc1ccc(C(=S)NCS(=O)(=O)c2ccc(C)cc2)cc1", "Potency": "inconclusive [inhibitor, partial curve, poor fit]"},
      {"compound": "CCOC(=O)C1=C(C)N=C2SC(C)C(=O)N2C1c1ccc(OCC)c(OCC)c1", "note": "(stereo not drawn)", "Potency": "inconclusive [inhibitor, full curve]"},
      {"compound": "OCC#CCSc1nnc(-c2ccc(Br)cc2)o1", "Potency": "inconclusive [inhibitor, full curve]"},
      {"compound": "Fc1ccc(-n2ncc3c(N4CCCCCC4)ncnc32)cc1", "activity change, negative = inhibition": "inactive: -4.37%"},
      {"compound": "CCCCNc1nc(=S)n(-c2ccccc2)c(C)c1C(C)=O", "Potency": "inconclusive [inhibitor, full curve]"},
      {"compound": "CCOc1nc(Oc2cccc(C(=O)O)c2)nc(Oc2cccc(C(=O)O)c2)n1", "Potency": "inconclusive [inhibitor, full curve, poor fit]"},
      {"compound": "O=C(NC1CCCc2c1cnn2-c1ccc(F)cc1F)c1ccccc1N1CCOCC1", "note": "(stereo not drawn)", "Potency": "inconclusive [inhibitor, full curve]"}
    ]}
  ]
}
